The RNAGym collection of RNA variant scans (doi:10.1073/pnas.2313332121)
Variants at the floor of the assay are shown more often than the library holds them.

B1: TPR 5TU (parent)
chain: GGAUCUUCUCGAUCUAACAAAAAAGACAAAUCUGCCACAAAGCUUGAGAGCAUCUUCGGAUGCAGAGGCGGCAGCCUUCGGUGGCGCGAUAGCGCCAACGUUCUCAACUAUGACACGCAAAACGCGUGCUCCGUUGAAUGGAGUUUAUCAUG

Variants of: B1
Assay: polymerase ribozyme fitness, log enrichment relative to wild type (log ratio); higher = more active; in vitro selection for triplet polymerase activity
Summary of the method: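 Mutant libraries were PCR-built and transcribed for each subunit of a heterodimeric triplet polymerase ribozyme and selected for one round in triplicate at −7 °C, frozen, before gel excision of extended constructs and streptavidin-bead capture. Input and output libraries were Illumina-sequenced, keeping genotypes with ≥10 input reads and ≥1 read per output. Fitness is a logarithmic ratio of genotype to wild-type enrichment, in base 2, using inverse-variance-weighted replicate averages.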

Variant | polymerase ribozyme fitness (log ratio)
GGAUCUUCUCGAUCUCACAAAGAAGAAAAAUCUGCCACAAAGCUUGAGAGCAUCUUCGGAUGCAGAGGCGGCAGGCUGCGGUGGUGCGAUAGCGGCAACGUUCUCAACUAUGACACGCAAAACGCGUGCUCCGUCGAAUGGAGUUUAUCAUG [A16C A22G C27A C75G U78G C85U C95G U135C] | ≤ -4.2
GGAUCUUCUCGAUCUCACAAAUAAGACAAAUCUGCCACAAAGCUUGAGAGCAUCUUCGGAUGCAGAGGUGGCAGCCUUCGGUGGGGCGAUAGCGCCAACGUUAUCAACUAUGACACGCAAAACGCGUGCUCCGUUGAAUGGAGUUUAUCAUG [A16C A22U C69U C85G C103A] | ≤ -4.2
GGAUCUUCUCGAUCUCACAAAAUAGACAAACCUGCCACAAAGCUUGGGAGCAUUUUCGGAUGCAGAGGCGGCAGCCUUCGGUGGCGCGAUAUCGCCAACGUUCUCAACUAUGACACUCAAAACGCGUGCUCCGUUGAAUGGAGUUUAUCAUG [A16C A23U U31C A47G C54U G92U G117U] | ≤ -4.2
GGAUCUUCUCGAUCUCACAAAAAGGACAAAUCUGCCACAAAGCUUGAGAGCAUCUCCGGAUGCAGAGGCGGCAGCCCUCGGUGGCACGAUAGCGCCAACGUUCGCAACUAUGACACGCAAAACGCGUGCUCCGUUGAAAGGGGUUUAUCAUG [A16C A24G U56C U77C G86A U104G U139A A142G] | ≤ -4.2
GGAUCUUCUCGAUCUCACAAAAAAGGCAAAUCUGCCACAAAGCUUGAGAGCAUCUUCGGAUGCAGAGGCGGCAGCCUUCGGUCGCGCCAUAGCGCCAAAGUUCUCAACUAUGACACGCAAAACGCGUGCUCCGUUGAAUGGAGUUUAUCAUG [A16C A26G G83C G88C C99A] | ≤ -4.2
GGAUCUUCUCGAUCUCACAAAAAAGACAUAUCUGCCACAAAGUUUGUGAGCAUCUUCGGAUGCAGAGGCGGCAGGCUUCCGUGGCGCUAUAGCGCAAACGUUCUCAACUAUGACACGCAAAACUCGUGCUCCGUUGAAAGGAAUUUAUCAUG [A16C A29U C43U A47U C75G G80C G88U C96A G124U U139A G143A] | ≤ -4.2
GGAUCUUCUCGAUCUCACAAAAAAGACAAAUCUGCCACACAGCUUGAGAGCAUCUUCGAAUGCAGAGGCGGCAGCCUUCGGUGGCGCGAUAGUGCCAACGUUCUCGACUAUGACACGCAAAACGCGUGCUCCGUUGAAUGGAGUUUAUCAUG [A16C A40C G59A C93U A106G] | -2.02
GGAUCUUCUCGAUCUCACAAAAAAGACAAAUCUGCCACACAGCUUGAGAGCAUCUUCGGAUGCAGAGGCGGCAGCCUUCGGUAGCGCGAUAGCGCCGACGUUCUCAACUAUGACACGCAAAACGCGUGCUCCGUUGAAUGGAGUUUAUCAUG [A16C A40C G83A A97G] | -0.914
GGAUCUUCUCGAUCUCACAAAAAAGACAAAUCUGCCACAUAGCUUGAGAGCAUCUUCGGAUGCAGAGGCGGCAGCCUUCGGUGGCGCGAUAGAGCCAACGUUCUCAACUAUGACACGCAAAGCGCGUGCUCCGUUGAAUGCAGUUUAUCAUG [A16C A40U C93A A122G G141C] | ≤ -4.2
GGAUCUUCUCGAUCUCACAAAAAAGACAAAUCUGCCACAAAGCUUGAGAGCUUCUUCGGAUGCAGAGGCGGCAGCCUUCGGUGGGGCGAUAGCGCCAACGUUCUCAACUAUGACACGCAAAGCCCGUGCUCCGUUGAAUGGAGUUUAUCAUG [A16C A52U C85G A122G G124C] | ≤ -4.2
GGAUCUUCUCGAUCUCACAAAAAAGACAAAUCUGCCACAAAGCUUGAGAGCAUCUUCGGGUGCAGAGGCGGCAGCCAUCGGUGGCGCGAUAGAGCCAACGUUCUCAACUAUGACACGCAAAACGCGUGCUCCGUUGAAUGGAGUUUAUCAUG [A16C A60G U77A C93A] | ≤ -4.2
GGAUCUUCUCGAUCUCACAAAAAAGACAAAUCUGCCACAAAGCUUGAGAGCAUCUUCGGAUGCAGAGGCGGCAGCCUUCGGUGGCGCGAUUGCGCCAACGUUCUCAACUAUGACACGCAAAACGCGUGCUCCGUUGAAUGGAAUUUAUCAUG [A16C A91U G143A] | ≤ -4.2
GGAUCUUCUCGAUCUCAGAAAGAAGAUAAAUCUGCCACAAAGCUUGAGAGCGUCUUCGGAAGCAGAGGCGGCGGCCUUCGGUGGAGCGAUAGCGCCAACGUUCUCAACUAUGACACGCAAAACGCGCGCUCCGUUGAACGGAGUUUAUCAUG [A16C C18G A22G C27U A52G U61A A73G C85A U127C U139C] | ≤ -4.2
GGAUCUUCUCGAUCUCAUAAAAAAGACAAAUCUGCCAUCAAGCUUGAGUGCAUCUUCGGAUGCAGAAGCGGCAGCCUUCGGUGGCGCGAUAGCGCCAACGUUCUCAACUAUGACACGCAAAACGCGUGCUCCGGUGAAUGGAGUUUAUCAUG [A16C C18U C38U A39C A49U G67A U134G] | ≤ -4.2
GGAUCUUCUCGAUCUCAUAAAAAAGACAAAUCUCCCACAAAGCUUGAGAGAAUCUUCAGAUGCAGAGGCGGUAGCGUUCGGUGGCGCGAUAGCGCCAACGUUCUUAACUAUGACACGCAAAACGCGUGCUCCGUUGAAUGGAGUUUAUCAUG [A16C C18U G34C C51A G58A C72U C76G C105U] | ≤ -4.2
GGAUCUUCUCGAUCUCACAAAAAAGAGAAAGUUGCCACAGAGCUUGAGAGCAUCUUCGGAUGCAGAGGCGGGAGCCUUCGGUGGCGCGAUAGCGCCAACUUUCUCAACUAUGACACGCAAAACGCGUGCUCCGUUGAAUGGAGUUCAUCAUG [A16C C27G U31G C32U A40G C72G G100U U146C] | ≤ -4.2
GGAUCUUCUCGAUCUCACAAAAAAGACAAAUAUGCCACAAAGCUUGAGAGCAUCUUUGGAUGCAGAGGCAGCAGCAUUCGGUGGCGCGCUAGCGCCAACGUUCUCAACUAUGACACGCAAAACGCGUGCUCCGUUGAAUGUUGUUUAUCAUG [A16C C32A C57U G70A C76A A89C G141U A142U] | ≤ -4.2
GGAUCUUCUCGAUCUCACAAAAAAGACAAAUAUGCCACAAAGCUUCAGAGCAUCUUCGGAUGCAGAGGCGGCAGCCUUCGGUGGCGCGAUAGCGCCAACUUUCUCAACUAUGACACGCAAAACGCGUGCUCCGUUGAAUGGUGUUUAUCAUG [A16C C32A G46C G100U A142U] | ≤ -4.2
GGAUCUUCUCGAUCUCACAAAAAAGACAAAUGUGCCACAAAGCUUGAUAGCAUCUUCGGAUGCAGAGGCGGCAGCCUUCGGUGGCGCGAUAGCGCCAACGUUCUCAACUAUGACACGCAAAACGCGUGCUCCGUUAAAUGGAGUUUAUCAUG [A16C C32G G48U G136A] | ≤ -4.2
